# Laboratory results taken from PubChem BioAssay AID504332 (National Center for Advancing Translational Sciences (NCATS), 2011).
# Several values for one entry are separate records, joined by “and”; a condition that tells them apart may be missing. Identical values can stand only once. Hit rate of the full screen: of about 350,000 compounds, about 31,000 (8.9%) were called active. Inconclusive means that the source gave no clear call. Such entries were picked first, then a sample of the others. Calls come from the whole dose curve; as a rule, active = well fitted inhibition curve with a large enough effect; inconclusive = small, poorly fitted or top-dose-only effect; inactive = no such curve, though single readings can be large or run the other way. A potency beside an inconclusive call is a rough fit, not a confirmed value.
# Biological target: Histone-lysine N-methyltransferase EHMT2 (Homo sapiens) (UniProt Q96KQ7)
# Test: qHTS Assay for Inhibitors of Histone Lysine Methyltransferase G9a; note: nearly all actives have a fitted effect of over 75% in size
# Settings: G9a H3K9 monomethylation, AlphaScreen, 2 h; activity, negative = inhibition: at 59 µM (top of the series) unless noted
# Procedure, shortened: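 Signal arises when biotinylated H3K9 peptide, once monomethylated, bridges streptavidin donor and antibody-captured acceptor beads. Enzyme at 20 nM was preincubated 15 min with test compounds; peptide 500 nM and SAM 20 uM then reacted for 2 h.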
# % is set by controls: 0 for no effect and ±100 for the full control effect; potency is the fitted concentration of half-maximal effect; tags give direction and shape of the fitted curve.
# Sequence of UniProt Q96KQ7 (Q96KQ7 whole entry, looked up): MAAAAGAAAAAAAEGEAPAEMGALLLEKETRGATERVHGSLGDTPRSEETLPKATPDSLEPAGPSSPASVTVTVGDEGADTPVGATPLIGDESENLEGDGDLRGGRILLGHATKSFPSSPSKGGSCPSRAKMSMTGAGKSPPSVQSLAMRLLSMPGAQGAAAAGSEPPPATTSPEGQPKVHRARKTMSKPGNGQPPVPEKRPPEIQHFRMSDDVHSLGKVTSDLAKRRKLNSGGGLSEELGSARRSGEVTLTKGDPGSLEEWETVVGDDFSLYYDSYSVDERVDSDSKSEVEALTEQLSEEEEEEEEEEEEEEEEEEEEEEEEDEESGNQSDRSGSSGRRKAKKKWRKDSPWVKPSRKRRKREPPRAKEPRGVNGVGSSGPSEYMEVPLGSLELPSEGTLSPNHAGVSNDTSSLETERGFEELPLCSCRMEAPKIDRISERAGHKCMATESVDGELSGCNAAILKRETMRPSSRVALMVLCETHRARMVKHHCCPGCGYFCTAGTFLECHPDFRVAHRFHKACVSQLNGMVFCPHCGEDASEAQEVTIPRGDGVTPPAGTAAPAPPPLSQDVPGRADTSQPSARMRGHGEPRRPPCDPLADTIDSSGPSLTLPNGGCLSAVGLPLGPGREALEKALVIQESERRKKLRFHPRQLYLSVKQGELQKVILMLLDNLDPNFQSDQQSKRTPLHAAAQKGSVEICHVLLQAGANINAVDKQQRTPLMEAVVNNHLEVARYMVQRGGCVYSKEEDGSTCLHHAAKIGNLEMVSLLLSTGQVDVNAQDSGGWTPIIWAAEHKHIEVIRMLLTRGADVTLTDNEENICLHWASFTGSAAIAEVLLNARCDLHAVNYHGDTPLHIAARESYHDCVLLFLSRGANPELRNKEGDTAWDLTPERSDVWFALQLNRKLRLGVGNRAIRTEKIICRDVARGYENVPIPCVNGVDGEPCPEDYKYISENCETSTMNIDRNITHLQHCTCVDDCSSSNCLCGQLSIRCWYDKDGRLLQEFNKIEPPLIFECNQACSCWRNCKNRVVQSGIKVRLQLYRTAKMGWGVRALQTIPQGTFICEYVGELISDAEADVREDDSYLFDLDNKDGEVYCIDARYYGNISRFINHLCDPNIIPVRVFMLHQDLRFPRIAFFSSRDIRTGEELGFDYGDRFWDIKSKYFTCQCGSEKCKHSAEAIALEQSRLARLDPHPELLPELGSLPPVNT
Compound,Potency,"activity, negative = inhibition"
CCOC(=O)c1cc(C)n(S(=O)(=O)c2ccc(C)cc2)c1C,"inconclusive: 11.2 µM [inhibitor, partial curve, poor fit]",
COc1cccc(NC(=S)NNC(=O)c2ccccc2OC(F)F)c1,,inconclusive: -68.4% [inhibitor]
CCCc1cc(C(=O)N2CCCC(N3CCN(c4ccccc4F)CC3)C2)n(C)n1 (stereo not drawn),,inactive: 14.7% [at 102 µM]
Cc1nc2nc(C)c(CCC(=O)NC(C)c3ccc4c(c3)OCCO4)c(C)n2n1 (stereo not drawn),"inconclusive: 89.1 µM [inhibitor, single point]",
CSc1nc2ccc(S(=O)(=O)N3CCOCC3)cc2s1,,inactive: 10.7% [at 12.7 µM]
O=C(/C=C/c1ccco1)Nc1cc(Cl)ccc1C(=O)O,active: 8.91 µM,
CCc1nc(C)cn1S(=O)(=O)c1cc(Br)c(C)cc1OC,"inconclusive: 44.7 µM [inhibitor, partial curve]",
COC(=O)C1=C(C)NC(=O)NC1c1ccc(-c2ccccc2Cl)o1 (stereo not drawn),"inconclusive: 89.1 µM [inhibitor, single point]",
COc1ccc(-c2nc3ccccc3o2)cc1NC(=O)c1ccc(N2CCC(C)CC2)c([N+](=O)[O-])c1,,inactive: -30.4%
O=C(CN1CCCN(S(=O)(=O)c2ccc(F)cc2)CC1)Nc1ccccc1Br,"inconclusive: 20 µM [inhibitor, single point]",
N#C/C(=C\c1ccc(-c2ccccc2[N+](=O)[O-])o1)C(=O)Nc1nc(-c2cccs2)cs1,"inconclusive: 10 µM [inhibitor, partial curve, poor fit]",
[O-][n+]1cccc2c(Br)cc(Br)c(O)c21,active: 50.1 µM,
COc1ccc(/C=N/NC(=O)c2ccncc2)cc1OC,,inactive: 5.94% [at 12.7 µM] and inactive: 17.5% [at 12.7 µM]
COc1ccc(Cl)cc1NC(=O)c1c(C(=O)Nc2cccc(C)c2C)sc2nc(C)cc(=O)n12,active: 11.2 µM,
Cc1ccc(NC(=O)c2nnn(CC(=O)Nc3ccccc3)c2N)cc1C,"inconclusive: 35.5 µM [inhibitor, partial curve, poor fit]",
N/C(=N\S(=O)(=O)c1cc(C(F)(F)F)cc(C(F)(F)F)c1)c1ccccc1,"inconclusive: 89.1 µM [inhibitor, partial curve, poor fit]",
CCOC(=O)N1CCN(C(=O)c2noc3c2COc2ccccc2-3)CC1,"inconclusive: 89.1 µM [inhibitor, single point]",
Cc1cccc(N2CCN(C(=O)c3ccccc3NC(=O)C3CC=CCC3C(=O)O)CC2)c1 (stereo not drawn),"inconclusive: 79.4 µM [inhibitor, single point]",
O=C(Nc1ccccc1)c1ccc(NCc2ccco2)c(S(=O)(=O)N2CCOCC2)c1,"inconclusive: 25.1 µM [inhibitor, partial curve, poor fit]",
O=C(Nc1cccc(F)c1)N1CC[C@@]2(CCCN(C(=O)c3cc(C(F)(F)F)cc(C(F)(F)F)c3)C2)C1,,inactive: -0.967% [at 12.7 µM]
Cc1ccc(C(=O)NC(=S)Nc2ccc(-c3ccc(CO)o3)cc2)cc1,"inconclusive: 89.1 µM [inhibitor, single point]",
CC1=[N+](C)c2c(ccc3cccnc23)C1(C)C,active: 3.16 µM,

Compound,Potency,"activity, negative = inhibition"
COc1ccc2c(c1)NC1(O)c3ccccc3C(=O)C21O (stereo not drawn),,inactive: -9.04% [at 102 µM]
O=C(CN1CCCCCC1)Nc1ccc([N+](=O)[O-])cc1Br,"inconclusive: 79.4 µM [inhibitor, single point]",
O=c1c(C=Nc2cccc(C(F)(F)F)c2)c[nH]n1-c1cccc(Cl)n1,active: 50.1 µM,
CCOC(=O)c1sc(NC(=O)c2nc(SCC)ncc2Cl)c(C(=O)OCC)c1C,,inactive: 6.99%
CN(C)CCNC(=O)Cc1ccc(NC(=O)N2CCCCc3ccccc32)cc1,,inactive: -4.38%
Cc1nc2ccc(C(C(F)(F)F)(C(F)(F)F)C(F)(F)F)cc2[nH]1,"inconclusive: 7.94 µM [inhibitor, single point]",
CCn1cc(CNC(=O)/C=C/c2cnn(C)c2)c(C)n1,"inconclusive: 89.1 µM [inhibitor, single point]",
O=C(CN(Cc1cccs1)C(=O)CN1C(=O)COc2ccccc21)NCc1ccco1,"inconclusive: 0.708 µM [inhibitor, full curve, poor fit]",
COc1ccc2c(c1)[nH]c1c(=O)n(CCc3cnc[nH]3)cnc12,"inconclusive: 1.12 µM [inhibitor, partial curve, poor fit]",
CCN(CC)S(=O)(=O)c1cc([N+](=O)[O-])ccc1NNC(=O)Nc1ccccc1,active: 15.8 µM,
COc1cc(C(=O)NCCOc2ccc(Cl)cc2)ccc1OCc1c(C)noc1C,,inactive: 19.4% [at 2.33 µM]
CC(=O)N1c2ccc(S(=O)(=O)NCCC(=O)NCc3ccc(N(C)C)cc3)cc2CC1C (stereo not drawn),,inconclusive: -54.1% [inhibitor]
O=C(Cn1ccccc1=O)c1cccs1,"inconclusive: 20 µM [inhibitor, single point]",
COc1ccccc1OCC(O)CN1CCOCC1 (stereo not drawn),,inactive: 16.1%
COc1ccc(CN2C(=O)c3cccnc3C2O)cc1 (stereo not drawn),"inconclusive: 3.16 µM [inhibitor, single point]",
Cc1ccc2nc(NC(=O)c3cc(-c4ccco4)nc4ccccc34)sc2c1,"inconclusive: 8.91 µM [inhibitor, partial curve, poor fit]",
Cc1ccc(NC2=Nc3ccccc3CC2)cc1,"inconclusive: 31.6 µM [inhibitor, single point]",
COc1ccccc1CNC(=O)c1ccc(-c2ccccc2C(F)(F)F)o1,"inconclusive: 44.7 µM [inhibitor, partial curve, poor fit]",
O=C(Nc1cccc(F)c1)N1CC[C@@]2(CCCN(C(=O)c3ccncc3)C2)C1,,inactive: -29.3% [at 12.7 µM]
O=C(N/N=C/c1ccccn1)c1cc(C2CC2)nc2ccccc12,"inconclusive: 0.631 µM [inhibitor, full curve, poor fit]",
CC(=O)CSc1nnc(-c2ccc(S(=O)(=O)N3CCCC3)cc2)n1C,"inconclusive: 10 µM [inhibitor, partial curve, poor fit]",
